Assay results as given in publication PMC4336329 (PLoS ONE, 2015).
Hit rate of the full screen: of about 310,000 compounds, about 14,000 (4.5%) showed an effect of 50% or more. Effects have a minus sign here. The list shows a part of the results.

Biological target: human ether-à-go-go-related gene (hERG) potassium channel (human, UniProt Q12809)
Assay: primary screen, population patch clamp on CHO cells stably expressing hERG
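Note: peak tail current of the secondary pulse compared with the same well before compound.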

Sequence of human ether-à-go-go-related gene (hERG) potassium channel (Q12809 whole entry, looked up): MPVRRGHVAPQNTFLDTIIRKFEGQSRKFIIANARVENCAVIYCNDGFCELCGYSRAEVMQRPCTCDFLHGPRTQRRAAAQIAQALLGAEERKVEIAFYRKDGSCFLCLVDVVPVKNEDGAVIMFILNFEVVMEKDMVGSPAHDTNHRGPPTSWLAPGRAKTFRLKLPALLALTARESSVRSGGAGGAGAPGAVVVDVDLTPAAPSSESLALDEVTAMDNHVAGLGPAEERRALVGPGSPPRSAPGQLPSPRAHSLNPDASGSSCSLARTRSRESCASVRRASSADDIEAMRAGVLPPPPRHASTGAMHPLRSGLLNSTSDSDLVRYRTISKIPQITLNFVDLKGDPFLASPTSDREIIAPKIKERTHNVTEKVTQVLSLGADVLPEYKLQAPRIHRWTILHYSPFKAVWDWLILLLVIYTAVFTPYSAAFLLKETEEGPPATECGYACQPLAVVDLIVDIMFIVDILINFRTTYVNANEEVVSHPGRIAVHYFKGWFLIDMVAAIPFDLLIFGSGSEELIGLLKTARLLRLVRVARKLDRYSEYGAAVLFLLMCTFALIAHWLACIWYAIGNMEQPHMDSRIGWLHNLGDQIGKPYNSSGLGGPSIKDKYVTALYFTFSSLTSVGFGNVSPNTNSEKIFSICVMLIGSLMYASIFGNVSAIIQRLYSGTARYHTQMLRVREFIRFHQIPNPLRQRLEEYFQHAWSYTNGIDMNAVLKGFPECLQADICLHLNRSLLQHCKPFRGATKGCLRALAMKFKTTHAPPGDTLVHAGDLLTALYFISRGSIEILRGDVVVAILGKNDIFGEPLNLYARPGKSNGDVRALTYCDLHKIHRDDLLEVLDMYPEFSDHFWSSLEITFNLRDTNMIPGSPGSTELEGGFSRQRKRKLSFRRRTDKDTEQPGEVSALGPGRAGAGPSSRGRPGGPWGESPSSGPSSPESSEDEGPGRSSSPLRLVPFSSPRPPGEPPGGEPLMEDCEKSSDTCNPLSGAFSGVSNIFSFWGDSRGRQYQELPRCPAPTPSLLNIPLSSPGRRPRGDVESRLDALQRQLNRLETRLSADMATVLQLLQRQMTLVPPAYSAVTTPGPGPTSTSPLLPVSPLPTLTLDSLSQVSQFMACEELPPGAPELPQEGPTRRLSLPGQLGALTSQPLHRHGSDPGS

SMILES	hERG current change (%, negative = inhibition) at 10uM [%]
Cc1ccc(OC(F)F)c(N2C(=O)C3C4CCC(O4)C3C2=O)c1 (stereo not shown)	17.8
CN(C)c1ccc(CCN2CCOCC2)cc1	21.9
O=C(O)c1ccc(Oc2ccccc2)o1	23.2
CN(C)C(=O)CCSc1nnc(-c2ccco2)o1	8.84
Cc1ccc(Nc2c([N+](=O)[O-])c(=O)n(C)c3ccccc23)cc1	-36.9
NC(=O)CC(NC(=O)Cc1cccc2ccccc12)c1ccc(N2CCN(c3ccccn3)CC2)c([N+](=O)[O-])c1 (stereo not shown)	16.5
CCOC(=O)C1=C(C)NC(=O)C(C#N)C1c1ccco1 (stereo not shown)	9.08
O=C(O)C1CCN(C(=O)c2cccc3ccccc23)CC1	16.2
CC1CC(C)CN(C(=O)COC(=O)C2CCN(S(=O)(=O)c3c(Cl)cccc3Cl)CC2)C1 (stereo not shown)	-31.5
CCN(/N=C/C=C/c1ccccc1)c1cc(=O)n(C)c(=O)[nH]1	12.2
CCCN1C(=O)/C(=N\OCC(=O)Nc2ccc(C(C)C)cc2)c2ccccc21	-11.4
Cc1cc(C)c(Cn2c(=O)n(CCCC(=O)NCc3ccco3)c(=O)c3sccc32)c(C)c1	6.15
O=C(COC(=O)c1ccc(O)cc1)Nc1ccccc1[N+](=O)[O-]	-10.6
CCC(C)NC(=O)c1cc2cc3ccc(OC)cc3nc2o1 (stereo not shown)	11.9
C[C@@]1(CO)[C@H](O)CC[C@@]2(C)[C@H]1CC[C@H]1C[C@@H]3C[C@@]12CC[C@]3(O)CO	6.59
COc1ccc(CN(C)c2ccc(S(=O)(=O)N3CCN(C)CC3)cc2[N+](=O)[O-])cc1OC	-9.79
Cc1ccc(C(=O)N/N=C/c2ccc(S(=O)(=O)[O-])o2)c(Cl)c1.[Na+]	16.6
Cc1ccsc1/C=N/NC(=O)C1CC(=O)N(c2ccc(F)cc2)C1 (stereo not shown)	-15.1
CCOC(=O)c1csc(NC(=O)CSc2nnnn2-c2ccc(OC)c(OC)c2)n1	2.29
CCO[C@@H]1OC(C(=O)N2CCOCC2)=C[C@H](C2CCCCC2)[C@H]1CCCO	14.5
Cc1ccccc1C(=O)Nc1nnc(-c2ccc(F)cc2)o1	-4.52
O=c1[nH]c(=O)n(-c2cc(Br)c(O)c(Br)c2)cc1Br	7.74

SMILES	hERG current change (%, negative = inhibition) at 10uM [%]
CC(=O)c1ccc(N2CCN(C(=O)/C=C/c3ccc(S(=O)(=O)N4CCOCC4)cc3)CC2)cc1	-30.3
Cc1cccc(-c2nnc3sc(-c4ccccc4)nn23)c1	-12.1
CC(=O)OCC12COC3c4ccccc4OC(C)(CC1C)C3C2C (stereo not shown)	-23.9
CCc1noc(C)c1C(=O)NNC(=O)COc1cc(C)ccc1C	-21.2
CSCCC(NS(=O)(=O)c1ccc(C)cc1)C(=O)NCC(C)(C)N1CCOCC1 (stereo not shown)	-11.8
COc1cc(N)c(Cl)cc1C(=O)OCC(=O)N1CCCCCC1	5.5
CNC(=O)NC(=O)CSc1nc2sccc2c(=O)n1-c1ccccc1	11
COc1ccc(C)cc1NC(=O)C(CCS(C)(=O)=O)NC(C)=O (stereo not shown)	2.33
COc1ccc2c(c1)[nH]c1c(=O)n(Cc3ccccn3)cnc12	4.28
Cc1sc2ncnc(N[C@@H](CCC(=O)O)C(=O)O)c2c1C	10.1
COC(=O)c1sc(NC(=O)c2c(-c3ccccc3)noc2C)nc1C	20.6
COc1ccc(Br)cc1S(=O)(=O)N1CCOCC1	7.54
CCN(CC)C(=O)c1ccc(NC(=O)Cn2nc(C)c3ccccc3c2=O)cc1	-10.3
C/C(=N\NC(=S)Nc1ccc(C(C)C)cc1)c1ccc2c(c1)OCO2	23.1
Cc1ccc(S(=O)(=O)NCCc2cc3ccc(C)c(C)c3[nH]c2=O)cc1	10
CC(=O)n1cc([C@H]2C=C(C(=O)O)O[C@@H](OCCCCO)C2)c2ccccc21	0.0595
CCCOc1ccc(CNC(=S)N/N=C/c2ccc([N+](=O)[O-])cc2)cc1	0.669
CCc1ccccc1OCCOc1ccc(C)cc1OC	10.1
Cc1ccc(-n2nc(C)c3c(C)c(CCC(=O)NCCCOC(C)C)c(C)nc32)cc1	-53.1
O=C(CCc1nc2ccccc2c(=O)[nH]1)Nc1cc(C(F)(F)F)ccc1N1CCCC1	3.53
Cc1cccc(OCCC(=O)NCC(=O)Nc2cccc(C)c2C)c1	8.48
